Hit rate of the full screen: of about 270,000 compounds, about 5,800 (2.1%) were called active. This list was built around the results that the source calls inconclusive (neither active nor inactive); the mix of calls is not that of the screen. The call rests on the fitted dose curve; in most records, active means well fitted inhibition curve with a large enough effect; inconclusive means small, poorly fitted or top-dose-only effect; inactive means flat fitted curve, though single readings scatter. Potencies beside an inconclusive call are fits to weak or partial responses and may not hold up. Numbered stars: 1 amine (or outer) side, 2 acyl side, 3 side chain; on linkers, the order of the positions; unused ones are H or OH. Bridge positions count the residues as written; N and C are the ends. Square brackets hold non-standard residues; d marks the D form. Peptide text beside a SMILES is read from it. I, II: the chains in the order shown. Actinocin(9to1) = Cc1c2oc3c(C)ccc(C(=O)[*:1])c3nc-2c(C(=O)[*:2])c(N)c1=O; NMeV = CN[CH](C(=O)O)C(C)C; Sar = CNCC(=O)O
These compounds were tested against Microtubule-associated protein tau (Homo sapiens) (UniProt P10636) (assay: qHTS for Inhibitors of Tau Fibril Formation, Thioflavin T Binding). Conditions: recombinant tau K18 P301L, heparin-induced fibrillization, ThT fluorescence; series mostly up to 57.4 µM.
Sequence of UniProt P10636 (P10636 whole entry, looked up): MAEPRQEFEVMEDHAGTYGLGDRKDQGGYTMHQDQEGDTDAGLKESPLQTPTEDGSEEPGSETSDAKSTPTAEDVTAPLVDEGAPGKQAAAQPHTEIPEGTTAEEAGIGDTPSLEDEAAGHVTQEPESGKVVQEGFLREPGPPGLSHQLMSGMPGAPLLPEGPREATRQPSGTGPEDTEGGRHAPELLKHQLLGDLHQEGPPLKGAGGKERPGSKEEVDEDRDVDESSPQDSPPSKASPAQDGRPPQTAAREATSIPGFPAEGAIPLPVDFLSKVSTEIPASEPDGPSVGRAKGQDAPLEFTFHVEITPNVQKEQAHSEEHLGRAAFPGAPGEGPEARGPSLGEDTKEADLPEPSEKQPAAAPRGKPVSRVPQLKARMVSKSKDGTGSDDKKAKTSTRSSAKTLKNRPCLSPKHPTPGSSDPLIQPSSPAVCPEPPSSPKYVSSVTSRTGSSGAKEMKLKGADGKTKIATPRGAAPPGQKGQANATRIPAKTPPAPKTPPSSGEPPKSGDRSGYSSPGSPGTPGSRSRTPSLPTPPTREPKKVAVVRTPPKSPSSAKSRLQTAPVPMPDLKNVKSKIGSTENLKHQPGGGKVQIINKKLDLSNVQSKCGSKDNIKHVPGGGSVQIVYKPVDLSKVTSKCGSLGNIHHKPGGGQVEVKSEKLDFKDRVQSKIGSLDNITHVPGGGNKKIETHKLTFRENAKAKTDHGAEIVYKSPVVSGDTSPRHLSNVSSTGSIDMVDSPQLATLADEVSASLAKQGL
Summary of the method: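 Using a mix of unlabeled (15 uM) and Alexa 594-labeled (0.24 uM) tau K18 P301L, heparin-triggered fibrillization over 6 hr at 37 C was scored by ThT fluorescence.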
Further: nearly all actives have a fitted effect of over 55% in size.
Potency means the concentration at half of the fitted maximal effect; tags describe the fitted curve by direction and shape.

Row | SMILES | Potency
1 | CCOc1ccc(N/C=C/C(=O)c2ccc(OC)cc2)c([N+](=O)[O-])c1 | inconclusive: 6.31 µM [inhibitor, partial curve]
2 | Cc1onc(-c2ccccc2Cl)c1C(=O)Nc1ccccc1 | inactive
3 | O=C1NNC(c2ccccc2)=N/C1=C\c1ccc(Cl)cc1 | inconclusive: 25.1 µM [inhibitor, partial curve]
4 | CCN1C(=O)/C(=C/c2ccc(C)o2)N(C)C1=S | active: 22.4 µM
5 | COc1ccccc1NC(=O)c1ccc(NC(=O)CSc2ncccn2)cc1 | inconclusive: 20 µM [inhibitor, single point]
6 | CC(=O)c1ccc(NC(=O)Cn2c(=O)n(Cc3ccco3)c(=O)c3sc4ccccc4c32)cc1 | inactive
7 | Cc1cccc2c1NC(=O)C21N2CCCC2C(C(=O)c2ccc3ccccc3c2)C12C(=O)Nc1ccccc12 (configuration not stated) | inconclusive: 7.94 µM [inhibitor, full curve]
8 | COc1ccc(/C=C/C(=O)c2ccc(O)cc2)cc1 | inconclusive: 0.891 µM [inhibitor, single point]
9 | COc1ccc(-c2nsc(NC(=O)c3oc4cc(C)c(C)cc4c3C)n2)cc1 | inconclusive: 2.82 µM [inhibitor, full curve, poor fit]
10 | COc1cc(/C=N/Nc2cccc3cccnc23)cc(OC)c1O | inconclusive: 3.16 µM [inhibitor, full curve]
11 | Brc1ccc(-c2nc3ncccn3c2Nc2ccc3c(c2)OCCO3)o1 | inconclusive: 14.1 µM [inhibitor, partial curve]
12 | O=C1CN(C(=O)CNCc2ccccc2Cl)c2ccccc2N1 | inactive
13 | COc1ccc(CNC(=O)C(NC(C)=O)C(=O)Nc2ccc(C(C)C)cc2)cc1 (configuration not stated) | inactive
14 | c1ccc(C[n+]2csc3ccccc32)cc1 | inconclusive: 31.6 µM [inhibitor, single point]
15 | COCc1cc(C)nc(SCC[N+](C)(C)CC(=O)Nc2cccc(C(F)(F)F)c2)c1C#N | inconclusive: 39.8 µM [inhibitor, single point]
16 | CCn1c(-c2ccccc2)c(C(=O)CCl)c2ccccc21 | inconclusive: 20 µM [inhibitor, partial curve]
17 | CCOc1ccc2c(c1)c(=O)c(S(=O)(=O)c1ccccc1)cn2CC(=O)Nc1ccccc1OC | inactive
18 | COc1cc(/C=C2\SC(=O)N(CCNC(=O)c3cnc(C)cn3)C2=O)cc(OC)c1OC | inconclusive: 25.1 µM [inhibitor, partial curve]
19 | C=CCN=C1NN=C(c2cc(C)n(CCOC)c2C)CS1 | inconclusive: 31.6 µM [inhibitor, single point]
20 | CN1CCc2c(sc3nc(NN)n(Cc4ccccc4)c(=O)c23)C1 | active: 15.8 µM
21 | CCc1cc[n+](/C(C(=S)Nc2cccc(C)c2)=C(/[O-])c2ccc(C)c([N+](=O)[O-])c2)cc1 | inconclusive: 17.8 µM [inhibitor, partial curve]

Row | SMILES | Potency
22 | Cc1ccsc1C(=O)Nc1n[nH]c(C(F)(F)F)n1 | inconclusive: 8.91 µM [inhibitor, partial curve, poor fit]
23 | COc1ccccc1C(=O)Nc1nnc(S(=O)(=O)N(C)c2ccc(Cl)cc2)s1 | inconclusive: 11.2 µM [inhibitor, partial curve]
24 | CCOc1ccc(N/C=C/C(=O)c2ccc3ccccc3c2)c([N+](=O)[O-])c1 | active: 1.12 µM
25 | O=C(O)c1cc(-c2ccc(C(F)(F)F)cc2)nc2n[nH]c(-c3ccccc3)c12 | inconclusive: 28.2 µM [inhibitor, partial curve]
26 | Cc1cccc2nc3c(nc12)-c1ccccc1C3=O | inconclusive: 6.31 µM [inhibitor, partial curve, poor fit]
27 | O=C(CCC(=O)c1cccs1)OCC(=O)c1ccc(Cl)s1 | inconclusive: 20 µM [inhibitor, single point]
28 | COc1ccccc1NC(=O)N1CCC(c2nc3cc(C)c(C)cc3[nH]2)CC1 | inconclusive: 0.0562 µM [activator, full curve, poor fit]
29 | CN1CCN(c2cc3c(c4c2[nH]c2ccccc24)C(=O)CC(C)(C)C3)CC1 | inconclusive: 25.1 µM [inhibitor, partial curve]
30 | O=C1NCCCc2c1oc1cc(Br)c(O)c(Br)c21 | inconclusive: 10 µM [inhibitor, partial curve]
31 | Cc1nc2cc(NC(=O)N(C)c3ccc4ccccc4c3)ccc2o1 | inconclusive: 14.1 µM [inhibitor, partial curve]
32 | O=C(Nc1cccc(C(F)(F)F)c1)Nc1ccc(N2CCCC2)c(S(=O)(=O)Nc2ccccc2Cl)c1 | inconclusive: 25.1 µM [inhibitor, partial curve]
33 | CCc1c(C)nc2cc(-c3ccc(OC)c(OC)c3)nn2c1N1CCCC1 | inconclusive: 22.4 µM [inhibitor, partial curve]
34 | Cc1ccc2nc(-c3ccc(NC(=O)c4cccnc4)cc3)oc2c1 | inconclusive: 31.6 µM [activator, single point]
35 | CCn1c(SCC(=O)Nc2nc3ccccc3s2)nnc1-c1ccc(Br)cc1 | inactive
36 | CCN(C(=O)CSc1cc(-c2ccccc2)c2ccc(OC)cc2n1)C1CCS(=O)(=O)C1 (configuration not stated) | inconclusive: 28.2 µM [inhibitor, single point]
37 | COc1cccc(C(=O)COC(=O)C(C)N2C(=O)c3ccccc3C2=O)c1 (configuration not stated) | inactive
38 | CCCCNC(=O)c1cnn2c(C)c(Cc3c(F)cccc3Cl)c(C)nc12 | inactive
39 | COc1cc2cc3c4cc(OC)c(OC)cc4cc[n+]3c(C)c2cc1OC | inconclusive: 10 µM [inhibitor, partial curve]
40 | Cc1cccc(C)c1OCC(O)CNC(C)(C)C (configuration not stated) | inactive
41 | Cc1ccccc1Cn1c(CN2CCC(C(=O)NCCN(C)C)CC2)cc2ccccc21 | inactive
42 | Cc1c2oc3c(C)ccc(C(=O)NC4C(=O)NC(C(C)C)C(=O)N5CCCC5C(=O)N(C)CC(=O)N(C)C(C(C)C)C(=O)OC4C)c3nc-2c(C(=O)NC2C(=O)NC(C(C)C)C(=O)N3CCCC3C(=O)N(C)CC(=O)N(C)C(C(C)C)C(=O)OC2C)c(N)c1=O (configuration not stated) (I: TVP[Sar][NMeV] / II: TVP[Sar][NMeV]; ester I:1-I:C, II:1-II:C; linker I:N-II:N via Actinocin(9to1); configuration not given here) | inconclusive: 22.4 µM [inhibitor, single point]

Reference: PubChem BioAssay AID1460 (National Center for Advancing Translational Sciences (NCATS), 2008)
